# In all, about 33,000 sequences were measured (“E-score (-0.5 to 0.5)”: median about -0.054, highest 2% from about 0.39 on). Some of the results follow.
# Biological target: Ylr278c (UniProt Q05854)
# Experiment: PBM E-score (8-mer binding enrichment) (E-score (-0.5 to 0.5)); higher = stronger / more preferred TF binding; most listed sequences are background and not binding sites
# Conditions: protein concentration: 200 nM; construct: GST-DNA-binding domain
# How it was run: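 Universal all-10-mer Agilent arrays, fresh or stripped once, were converted to double-stranded form by primer extension. GST-tagged yeast transcription factors from PURExpress in vitro transcription/translation, full-length or DNA-binding domain only, were applied at about 100-200 nM and detected with fluorescent anti-GST. After masliner normalisation, the Universal PBM Analysis Suite scored each ungapped eight-base word together with its reverse complement by E-score.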
row,Sequence,PBM E-score
1,AACTGTTG,-0.212
2,GAAGTCGA,-0.112
3,ATGGTTTG,0.0845
4,ATAGCAGA,-0.174
5,AAGCCGCA,0.107
6,AGCCAAGC,-0.203
7,GCTCTCAA,-0.106
8,GAAAGGCC,0.223
9,GGGAACCA,-0.206
10,GGGGACTA,-0.2
11,CTGGTACA,-0.242
12,CAAAACAG,-0.17
13,AGTTCTTC,-0.0597
14,ACTACACG,-0.145
15,ATCTTTTG,-0.0886
16,CGCTTCAA,0.00316
17,CCTTTCGA,-0.0883
18,GCGCTTTA,-0.00327
19,CACGGCTA,0.11
20,CTATGACC,-0.139
21,TCGGACCA,0.379
22,AACTATCG,-0.0554
23,GCGAGATA,0.0394
24,ACGAGAGC,-0.134
25,AGGGCTAA,-0.0787

row,Sequence,PBM E-score
1,ACTAGCTA,-0.0942
2,AGTTACTA,-0.127
3,CGATCAAG,-0.00728
4,GACTAGGA,-0.0535
5,CTGGCCTA,-0.192
6,GAGCAACA,-0.0838
7,CGGCGAGC,0.234
8,GCGATAAA,0.0153
9,ACTGGGAG,-0.0587
10,CGAAGACA,0.0958
11,AGGCACTG,-0.178
12,CCTGCAAG,-0.217
13,TGACGGAA,0.286
14,AGAGCCCT,-0.187
15,AACGCGCT,0.0261
16,CCACTGGC,-0.0844
17,GCAAATTA,0.14
18,AAGTTGCC,0.111
19,ATGGCCCG,0.171
20,AAGGCTCA,-0.23
21,CATTCGTA,-0.188
22,AGGGGTCA,-0.155
23,TACTCTAA,-0.118
24,ACATCATG,-0.029
25,GCTGACAC,-0.126

row,Sequence,PBM E-score
1,AGCGGGGG,-0.115
2,CAGGCGAA,-0.345
3,AATAGTAA,-0.119
4,CGAGTTAG,-0.103
5,GACAGGGA,-0.125
6,AAAGCGTT,-0.153
7,CCCGTAGG,-0.0731
8,CTACACAA,0.0469
9,GGCACCCA,-0.0532
10,ATAGCCGG,0.388
11,CCTCCATA,-0.193
12,CGCTCCCA,0.0833
13,CCTAACTA,0.0582
14,GTTTGTAA,-0.0507
15,CCCAGATC,-0.122
16,ACATTCTG,-0.246
17,CAAGAGTC,-0.0993
18,GCATAACC,0.0681
19,ATACCCGG,0.31
20,ATGGAAAC,-0.0103
21,CACTGGGG,-0.0212
22,CAGACAAA,-0.0575
23,GCGTCGTA,0.0408
24,CCTGCAGA,0.0252
25,AACCGCCC,0.0416

row,Sequence,PBM E-score
1,CACAATGC,0.0426
2,GAAAGCAC,-0.0922
3,ATGAATCG,-0.157
4,GCAGTGGA,-0.259
5,ACACTTAG,-0.0913
6,AGCGGGAC,0.112
7,GATTACGA,0.0367
8,GACTGCCC,-0.166
9,GATGGAGC,-0.0617
10,AAGGCTAA,-0.125
11,CTGACGGA,0.217
12,ACACCAAG,-0.192
13,AATCGAGC,-0.0727
14,AACTTCTG,-0.197
15,CCGCGTAC,0.19
16,ACCGACGC,0.0804
17,CCAAGGGA,-0.289
18,CACGGCGA,0.0929
19,CCTTCACA,-0.249
20,ACTACTCC,0.293
21,GATGTATA,-0.00628
22,TCCTGGAA,-0.0446
23,CCCACACC,-0.0326
24,GGTGTTCA,-0.0349
25,AGCAGCAT,-0.0117

row,Sequence,PBM E-score
1,CGAGCTGA,0.0184
2,AGGTGACC,-0.216
3,GTACCTAC,-0.298
4,ACCTGTTA,-0.262
5,CTCACCGA,0.112
6,ACTTTTGC,-0.0939
7,CTAGCGTA,-0.0464
8,AGACTAGC,-0.321
9,AAGTTGCT,-0.119
10,ACAGGACA,-0.0363
11,CGCACTGA,-0.078
12,GCTAAGGA,-0.265
13,ACCCGCCG,0.307
14,GGACACTA,-0.0657
15,AGTATCGA,0.0149
16,ACACCCAA,-0.0873
17,AGGCATTG,-0.0254
18,CGACAGCG,0.227
19,TACGAATA,-0.197
20,ATGTTGGC,-0.0195
21,AAGTGACC,-0.0859
22,CGAAGGCA,-0.0856
23,CCTTTGAC,-0.121
24,CTCTTGGC,-0.239
25,CGCGTCAC,-0.174

row,Sequence,PBM E-score
1,ATTTCAGG,0.0318
2,GCCATTGA,0.0686
3,CCAACTTA,0.0436
4,GAAGCTGC,-0.17
5,AAGACTAA,-0.00975
6,ATGTCACA,-0.242
7,TGATGGAA,-0.179
8,AATGTGAG,-0.264
9,GTTTAAAA,-0.0825
10,AGAATGCG,0.0983
11,AGCAGCCG,0.0227
12,TCAGCCAA,-0.183
13,ATCTCGCA,-0.0496
14,CGACTGCC,0.0706
15,ATTAAACG,-0.0237
16,ACAGCTCG,-0.093
17,GACCTTCA,-0.0306
18,CTAGTAAA,0.0822
19,ACAGGCGA,-0.186
20,CTATCGTC,-0.164
21,CTGGCTTC,-0.198
22,ACGAAAAC,0.0784
23,AAAGTCGT,-0.213
24,AAGCGGCT,0.188
25,ATCCCAAC,-0.141

row,Sequence,PBM E-score
1,CAAAACTG,-0.0958
2,AAGGACGT,-0.168
3,TATGGGGA,0.0927
4,ACATGCCG,0.264
5,TAGCGCTA,0.0433
6,ATCGGTAC,0.157
7,ATCATAGA,-0.0941
8,ATGCTTGG,-0.184
9,CTACGAGA,-0.136
10,ATCGATCC,-0.039
11,CATGCGCG,0.137
12,AAGAAGTC,0.101
13,AGAAGAGA,-0.112
14,ATTTTTCA,0.00958
15,CCTCCCCG,0.232
16,TAACCGCA,0.0534
17,AGGAATTA,0.0107
18,CGATCAAA,0.032
19,GGGTTAAA,-0.0115
20,AATGGAGC,-0.148
21,GGTCCGAC,0.39
22,CAGTTTCG,0.0435
